PubChem BioAssay (NCATS)
Where “and” joins values, the source holds several entries; their conditions need not be identical. Equal values may be shown once. The shares of active, inactive and inconclusive entries below differ from those in the screen. Where the call is inconclusive, the potency comes from a doubtful curve fit. Calls of active or inactive are those of the source. Calls come from the whole dose curve; as a rule, active = well fitted inhibition curve with a large enough effect; inconclusive = small, poorly fitted or top-dose-only effect; inactive = no such curve, though single readings can be large or run the other way.

Test: Primary qHTS for small molecule stabilizers of the endoplasmic reticulum resident proteome: Secreted ER Calcium Modulated Protein (SERCaMP) assay (AID 1508630)
Conditions: SH-SY5Y GLuc-SERCaMP (Gaussia luciferase released on ER calcium loss) secretion, thapsigargin, luminescence; activity change, negative = inhibition: at 38.4 µM (top of the series) unless noted
Method in brief: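 GLuc-SERCaMP-expressing SH-SY5Y cells, pretreated 16 h with compound, are challenged with thapsigargin to empty ER calcium stores; after 4 h, coelenterazine is added directly to the medium and luminescence is imaged.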
% is set by controls: 0 for no effect and ±100 for the full control effect; potency is the fitted concentration of half-maximal effect; tags give direction and shape of the fitted curve.

Compound | Potency | activity change, negative = inhibition
CN(C)c1ccc(/C=C2\C(=O)Nc3ccccc32)cc1 | inconclusive: 35.5 µM [inhibitor, partial curve, poor fit] and inactive | 
N[C@H]1CONC1=O | inactive | 
O=c1c(O)c(-c2ccc(O)cc2)oc2cc(O)cc(O)c12 | inconclusive: 14.1 µM [inhibitor, partial curve, poor fit] | 
Cc1[nH]c(C=C2C(=O)Nc3ccccc32)c(C)c1CCC(=O)O | inactive | 
CC[C@@]1(O)C[C@H](O[C@H]2C[C@H](N(C)C)[C@H](O[C@H]3C[C@H](O)[C@H](O[C@H]4CCC(=O)[C@H](C)O4)[C@H](C)O3)[C@H](C)O2)c2c(cc3c(c2O)C(=O)c2c(O)cccc2C3=O)[C@@H]1C(=O)OC | inactive | 
CO[C@H]1C=CC=C(C)C(=O)NC2=CC(=O)C(NCCN(C)C)=C(C[C@@H](C)C[C@H](OC)[C@@H](O)[C@@H](C)C=C(C)[C@@H]1OC(N)=O)C2=O | inactive | 
Cc1cc(C)c(/C=C2\C(=O)Nc3ccccc32)[nH]1 | inconclusive: 2.24 µM [inhibitor, full curve] and inconclusive: 35.5 µM [inhibitor, partial curve] | 
Oc1ccc(OCc2ccccc2)cc1 | inconclusive: 0.266 µM [inhibitor, full curve, poor fit] | 
O=Nc1ccc2oc(=O)ccc2c1 | inactive | 
CCn1cc(C(=O)O)c(=O)c2cc(F)c(N3CCNC(C)C3)c(F)c21 (stereo not drawn) | inconclusive: 6.31 µM [inhibitor, partial curve, poor fit] and inconclusive: 8.91 µM [inhibitor, partial curve, poor fit] and inconclusive: 31.6 µM [inhibitor, partial curve, poor fit] | 
Cc1coc2ccccc2c1=O | inconclusive: 1.58 µM [inhibitor, full curve] | 
Cc1cc(C=c2sc3nc4ccccc4n3c2=O)c(C)n1-c1ccccc1 | inactive | 
COc1cccc2c1CCCC2CCCN1CCN(C2CCCCC2)CC1 (stereo not drawn) | inconclusive: 5.62 µM [inhibitor, partial curve, poor fit] | 
Nc1nc2ccc(OC(F)(F)F)cc2s1 | inconclusive: 2.24 µM [inhibitor, full curve, poor fit] and inconclusive: 31.6 µM [inhibitor, partial curve, poor fit] | 
O=S(=O)(O)CCSSCCS(=O)(=O)O | inconclusive: 0.0038 µM [inhibitor, full curve, poor fit] | 
O=C(O)c1cc(=O)c2c(Cl)cc(Cl)cc2[nH]1 | inactive and inconclusive: 2.24 µM [inhibitor, full curve, poor fit] and inconclusive: 3.55 µM [inhibitor, full curve, poor fit] | 
CCOC(=O)c1ccccc1O | inconclusive: 2.82 µM [inhibitor, full curve] | 
Oc1ccc(C2CNCc3sccc32)cc1O (stereo not drawn) | inactive | 
NC(CO)(CO)CCc1ccc(Sc2cccc(OCc3ccccc3)c2)cc1Cl | inactive | 

Compound | Potency | activity change, negative = inhibition
CS(=O)(=O)N(Cc1ccco1)CC(O)Cn1c2ccccc2c2ccccc21 (stereo not drawn) | inconclusive: 29.8 µM [inhibitor, single point] | 
Nc1ccc(C(=O)O)c(O)c1 | inconclusive: 2.24 µM [inhibitor, full curve, poor fit] | 
Cc1cccc(Nc2nc(-c3ccncc3)cs2)c1 | inconclusive: 0.0033 µM [inhibitor, full curve, poor fit] | 
O=C1NC(=O)C(=Cc2ccc(-c3ccc(F)cc3)o2)S1 | inconclusive: 0.0133 µM [inhibitor, full curve] | 
CC(=O)c1ccc(OCC(=O)N2CCCCC2)cc1 |  | inconclusive: -31.7% [inhibitor]
CC(=O)SCC(CC(=O)c1ccc(C)cc1)C(=O)O (stereo not drawn) | inconclusive: 10 µM [inhibitor, partial curve, poor fit] | 
C[C@@H](O[C@H]1OCCN(Cc2n[nH]c(=O)[nH]2)[C@@H]1c1ccc(F)cc1)c1cc(C(F)(F)F)cc(C(F)(F)F)c1 | inactive | 
CCN1/C(=C/C(C)=O)Sc2ccc(OC)cc21 | inconclusive: 8.91 µM [inhibitor, partial curve, poor fit] | 
O=C(C=Cc1ccc(O)cc1)c1ccc(O)cc1O | inconclusive: 31.6 µM [inhibitor, partial curve, poor fit] | 
CC(O)=C(C#N)C(=O)Nc1ccc(C(F)(F)F)cc1 | inconclusive: 9.43 µM [inhibitor, single point] | 
CC1(C)S[C@@H]2[C@H](NC(=O)[C@H](N)c3ccccc3)C(=O)N2[C@H]1C(=O)O | inconclusive: 1 µM [inhibitor, full curve] | 
O=C(O)c1c(O)c(-c2ccccc2)nc2ccccc12 | inconclusive: 28.2 µM [inhibitor, single point] | 
C[C@H](NC(=O)[C@@H](O)c1cc(F)cc(F)c1)C(=O)N[C@@H]1C(=O)N(C)c2ccccc2-c2ccccc21 | inconclusive: 29.8 µM [inhibitor, single point] | 
N#Cc1ccc(NC(=O)Nc2ccccc2Br)c2n[nH]nc12 | inconclusive: 0.0009 µM [inhibitor] | 
CN(C1CCc2c(c3ccccc3n2CC(=O)O)C1)S(=O)(=O)c1ccc(F)cc1 (stereo not drawn) | inconclusive: 29.8 µM [inhibitor, single point] | 
Cc1nn(-c2ccccc2)c(C)c1/C=N/N1CCN(Cc2ccccc2)CC1 | inconclusive: 22.4 µM [inhibitor, single point] | 
NS(=O)(=O)c1cccc2c1C(=O)c1cccc(O)c1C2=O | inconclusive: 1.33 µM [inhibitor, full curve, poor fit] | 
CCC1(c2ccccc2)C(=O)NCNC1=O | inconclusive: 8.91 µM [inhibitor, full curve] | 
CC(C(=O)O)c1ccc(-c2ccccc2)c(F)c1 (stereo not drawn) | inactive | 
